Test results: patent US20030065015A1 (priority 2001, published 2003)

Details: extraction from a strongly acidic solution (1 M HCl)
Method: To measure the partition coefficient for a facilitating anion in the presence of a quaternary ammonium compound, an acidified aqueous solution of the quaternary ammonium compound with a non-facilitating anion (e.g., tosylate, bromide or chloride) is first prepared. Sodium bicarbonate and a salt comprising the facilitating anion to be tested are then added to the aqueous solution. The salt comprising the facilitating anion should be added in an amount sufficient to provide a 1:1 molar ratio of the facilitating anion to the quaternary ammonium cation. The sodium bicarbonate is provided in an amount sufficient to produce a preselected pH value. An equal volume of n-octanol is then added to this solution. […] The mixture is centrifuged to separate an octanol layer and an aqueous layer, and the distribution ratio of the quaternary ammonium cation between the octanol-rich phase and the aqueous-rich phase (that is, the partition coefficient) may be measured. […]
Several formulations of the present invention were tested using an n-octanol/aqueous buffer system to measure the partition coefficients for the 2-PAM cation in the presence of the various facilitating anions. […] The mixture was centrifuged to separate an octanol layer and an aqueous layer, and the distribution ratio of the 2-PAM cation between the octanol-rich phase and the aqueous-rich phase (that is, the partition coefficient) was measured. […]

Structure (SMILES): C[n+]1ccccc1/C=N/O [2-PAM chloride, 2-[(hydroxyimino)methyl]-1-methylpyrdinium chloride]
- partition coefficient: around 0.01
